Measured values published in the supplement of paper PMC9542798.

Legend:
Test in all cases: minimum inhibitory concentration
[1] = compound: O=C(N[C@H](CO)[C@H](O)c1ccc([N+](=O)[O-])cc1)C(Cl)Cl [Chloramphenicol]
Experimental: (§1)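 Broth microdilution MIC per ISO 10932 on precoated VetMIC Lact-1 plates (tylosin, vancomycin and ampicillin plates prepared manually) against lactic acid bacteria and bifidobacteria isolates. Plates were read visually after 48 h anaerobic incubation (bifidobacteria 72 h; enterococci and staphylococci 24 h aerobic) at species-specific temperatures of 30 or 37 °C. Values prefixed with < or > are outside the tested dilution range.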

[2] = compound: NC[C@H]1O[C@H](O[C@H]2[C@H](O)[C@@H](O[C@H]3O[C@H](CO)[C@@H](O)[C@H](N)[C@H]3O)[C@H](N)C[C@@H]2N)[C@H](O)[C@@H](O)[C@@H]1O [Kanamycin]
Experimental: as §1

[3] = compound: CC[C@H]1OC(=O)[C@H](C)[C@@H](O[C@H]2C[C@@](C)(OC)[C@@H](O)[C@H](C)O2)[C@H](C)[C@@H](O[C@@H]2O[C@H](C)C[C@H](N(C)C)[C@H]2O)[C@](C)(O)C[C@@H](C)C(=O)[C@H](C)[C@@H](O)[C@]1(C)O [Erythromycin]
Experimental: as §1

[4] = compound: CNC(C)C1CCC(N)C(OC2C(N)CC(N)C(OC3OCC(C)(O)C(NC)C3O)C2O)O1 [Gentamicin]
Experimental: as §1

[5] = compound: CN(C)[C@@H]1C(O)=C(C(N)=O)C(=O)[C@@]2(O)C(O)=C3C(=O)c4c(O)cccc4[C@@](C)(O)[C@H]3C[C@@H]12 [Tetracycline]
Experimental: as §1

[6] = compound: NC[C@@H]1O[C@H](O[C@H]2[C@@H](O)[C@H](O[C@@H]3[C@@H](O)[C@H](N)C[C@H](N)[C@H]3O[C@H]3O[C@H](CN)[C@@H](O)[C@H](O)[C@H]3N)O[C@@H]2CO)[C@H](N)[C@@H](O)[C@@H]1O [Neomycin]
Experimental: as §1

[7] = compound: CCC[C@@H]1C[C@@H](C(=O)N[C@@H]([C@H]2O[C@H](SC)[C@H](O)[C@@H](O)[C@H]2O)[C@H](C)Cl)N(C)C1 [Clindamycin]
Experimental: as §1

[8] = compound: CN[C@@H]1[C@H](O[C@H]2[C@H](O[C@H]3[C@H](O)[C@@H](O)[C@H](N=C(N)N)[C@@H](O)[C@@H]3N=C(N)N)O[C@@H](C)[C@]2(O)C=O)O[C@@H](CO)[C@H](O)[C@H]1O [Streptomycin]
Experimental: as §1

[9] = compound: CC1(C)S[C@@H]2[C@H](NC(=O)[C@H](N)c3ccccc3)C(=O)N2[C@H]1C(=O)O [Ampicillin]
Experimental: as §1

[10] = compound: CN[C@H](CC(C)C)C(=O)N[C@H]1C(=O)N[C@@H](CC(N)=O)C(=O)N[C@H]2C(=O)N[C@H]3C(=O)N[C@H](C(=O)N[C@H](C(=O)O)c4cc(O)cc(O)c4-c4cc3ccc4O)[C@H](O)c3ccc(c(Cl)c3)Oc3cc2cc(c3O[C@@H]2O[C@H](CO)[C@@H](O)[C@H](O)[C@H]2O[C@H]2C[C@](C)(N)[C@H](O)[C@H](C)O2)Oc2ccc(cc2Cl)[C@H]1O [Vancomycin]
Experimental: as §1
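Further: isolates derived from commercial starter, protective, probiotic or feed-additive cultures, from fermented products, from human gut mucosa or feces, and from human milk or colostrum.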

Staphylococcus epidermidis IM1435 (strain group: starter cultures)
minimum inhibitory concentration [1]: 16 µg/mL | minimum inhibitory concentration [2]: 32 µg/mL | minimum inhibitory concentration [3]: > 8 µg/mL | minimum inhibitory concentration [4]: 2 µg/mL | minimum inhibitory concentration [5]: 2 µg/mL | minimum inhibitory concentration [6]: 8 µg/mL | minimum inhibitory concentration [7]: > 16 µg/mL | minimum inhibitory concentration [8]: 256 µg/mL | minimum inhibitory concentration [9]: 0.25 µg/mL | minimum inhibitory concentration [10]: 2 µg/mL

Bifidobacterium bifidum IM960 (strain group: human intestinal mucosa or faeces)
minimum inhibitory concentration [1]: 1 µg/mL | minimum inhibitory concentration [2]: 512 µg/mL | minimum inhibitory concentration [3]: 0.12 µg/mL | minimum inhibitory concentration [4]: 128 µg/mL | minimum inhibitory concentration [5]: 1 µg/mL | minimum inhibitory concentration [6]: 256 µg/mL | minimum inhibitory concentration [7]: 0.12 µg/mL | minimum inhibitory concentration [8]: 128 µg/mL | minimum inhibitory concentration [9]: 0.063 µg/mL | minimum inhibitory concentration [10]: 0.5 µg/mL

Bifidobacterium adolescentis IM775 (strain group: human intestinal mucosa or faeces)
minimum inhibitory concentration [1]: 2 µg/mL | minimum inhibitory concentration [2]: 512 µg/mL | minimum inhibitory concentration [3]: 0.25 µg/mL | minimum inhibitory concentration [4]: 256 µg/mL | minimum inhibitory concentration [5]: 16 µg/mL | minimum inhibitory concentration [6]: 256 µg/mL | minimum inhibitory concentration [7]: 0.12 µg/mL | minimum inhibitory concentration [8]: 128 µg/mL | minimum inhibitory concentration [9]: 0.25 µg/mL | minimum inhibitory concentration [10]: 0.5 µg/mL

Streptococcus thermophilus IM1447 (strain group: starter cultures)
minimum inhibitory concentration [1]: 2 µg/mL | minimum inhibitory concentration [2]: 16 µg/mL | minimum inhibitory concentration [3]: 0.06 µg/mL | minimum inhibitory concentration [4]: 2 µg/mL | minimum inhibitory concentration [5]: 0.5 µg/mL | minimum inhibitory concentration [6]: 4 µg/mL | minimum inhibitory concentration [7]: < 0.03 µg/mL | minimum inhibitory concentration [8]: 8 µg/mL | minimum inhibitory concentration [9]: 0.25 µg/mL | minimum inhibitory concentration [10]: < 0.25 µg/mL

Leuconostoc pseudomesenteroides IM1436 (strain group: starter cultures)
minimum inhibitory concentration [1]: 4 µg/mL | minimum inhibitory concentration [2]: 16 µg/mL | minimum inhibitory concentration [3]: 0.12 µg/mL | minimum inhibitory concentration [4]: < 0.5 µg/mL | minimum inhibitory concentration [5]: 1 µg/mL | minimum inhibitory concentration [6]: 1 µg/mL | minimum inhibitory concentration [7]: < 0.03 µg/mL | minimum inhibitory concentration [8]: 8 µg/mL | minimum inhibitory concentration [9]: 0.25 µg/mL | minimum inhibitory concentration [10]: > 128 µg/mL

Lactococcus lactis IM44 (strain group: starter cultures)
minimum inhibitory concentration [1]: 2 µg/mL | minimum inhibitory concentration [2]: 4 µg/mL | minimum inhibitory concentration [3]: 1 µg/mL | minimum inhibitory concentration [4]: 2 µg/mL | minimum inhibitory concentration [5]: 0.25 µg/mL | minimum inhibitory concentration [6]: 4 µg/mL | minimum inhibitory concentration [7]: 0.12 µg/mL | minimum inhibitory concentration [8]: 16 µg/mL | minimum inhibitory concentration [9]: 0.25 µg/mL | minimum inhibitory concentration [10]: 0.5 µg/mL

Schleiferilactobacillus harbinensis IM1358 (strain group: non-starter strains)
minimum inhibitory concentration [1]: 4 µg/mL | minimum inhibitory concentration [2]: 16 µg/mL | minimum inhibitory concentration [3]: 0.5 µg/mL | minimum inhibitory concentration [4]: 2 µg/mL | minimum inhibitory concentration [5]: 0.5 µg/mL | minimum inhibitory concentration [6]: 4 µg/mL | minimum inhibitory concentration [7]: 0.5 µg/mL | minimum inhibitory concentration [8]: 1 µg/mL | minimum inhibitory concentration [9]: 2 µg/mL | minimum inhibitory concentration [10]: > 128 µg/mL

Bifidobacterium adolescentis IM764 (strain group: human intestinal mucosa or faeces)
minimum inhibitory concentration [1]: 1 µg/mL | minimum inhibitory concentration [2]: 256 µg/mL | minimum inhibitory concentration [3]: < 0.016 µg/mL | minimum inhibitory concentration [4]: 64 µg/mL | minimum inhibitory concentration [5]: 0.5 µg/mL | minimum inhibitory concentration [6]: 64 µg/mL | minimum inhibitory concentration [7]: < 0.03 µg/mL | minimum inhibitory concentration [8]: 32 µg/mL | minimum inhibitory concentration [9]: 0.125 µg/mL | minimum inhibitory concentration [10]: < 0.25 µg/mL

Lactobacillus acidophilus IM808 (strain group: probiotic strains)
minimum inhibitory concentration [1]: 4 µg/mL | minimum inhibitory concentration [2]: 4 µg/mL | minimum inhibitory concentration [3]: 0.5 µg/mL | minimum inhibitory concentration [4]: < 0.5 µg/mL | minimum inhibitory concentration [5]: 0.5 µg/mL | minimum inhibitory concentration [6]: 2 µg/mL | minimum inhibitory concentration [7]: 1 µg/mL | minimum inhibitory concentration [8]: < 0.5 µg/mL | minimum inhibitory concentration [9]: < 0.032 µg/mL | minimum inhibitory concentration [10]: 0.5 µg/mL

Bifidobacterium adolescentis IM677 (strain group: human intestinal mucosa or faeces)
minimum inhibitory concentration [1]: 1 µg/mL | minimum inhibitory concentration [2]: 512 µg/mL | minimum inhibitory concentration [3]: 0.12 µg/mL | minimum inhibitory concentration [4]: 64 µg/mL | minimum inhibitory concentration [5]: 1 µg/mL | minimum inhibitory concentration [6]: > 256 µg/mL | minimum inhibitory concentration [7]: 0.12 µg/mL | minimum inhibitory concentration [8]: 128 µg/mL | minimum inhibitory concentration [9]: 2 µg/mL | minimum inhibitory concentration [10]: < 0.25 µg/mL

Lactobacillus gasseri IM873 (strain group: human milk or colostrum)
minimum inhibitory concentration [1]: 4 µg/mL | minimum inhibitory concentration [2]: 64 µg/mL | minimum inhibitory concentration [3]: 0.12 µg/mL | minimum inhibitory concentration [4]: 2 µg/mL | minimum inhibitory concentration [5]: 2 µg/mL | minimum inhibitory concentration [6]: 32 µg/mL | minimum inhibitory concentration [7]: 2 µg/mL | minimum inhibitory concentration [8]: 2 µg/mL | minimum inhibitory concentration [9]: 0.5 µg/mL | minimum inhibitory concentration [10]: 1 µg/mL

Bifidobacterium adolescentis IM796 (strain group: human intestinal mucosa or faeces)
minimum inhibitory concentration [1]: 2 µg/mL | minimum inhibitory concentration [2]: 512 µg/mL | minimum inhibitory concentration [3]: 0.25 µg/mL | minimum inhibitory concentration [4]: 128 µg/mL | minimum inhibitory concentration [5]: 16 µg/mL | minimum inhibitory concentration [6]: 256 µg/mL | minimum inhibitory concentration [7]: 0.12 µg/mL | minimum inhibitory concentration [8]: 128 µg/mL | minimum inhibitory concentration [9]: 0.063 µg/mL | minimum inhibitory concentration [10]: 0.5 µg/mL

Streptococcus thermophilus IM1368 (strain group: starter cultures)
minimum inhibitory concentration [1]: 2 µg/mL | minimum inhibitory concentration [2]: 64 µg/mL | minimum inhibitory concentration [3]: 0.5 µg/mL | minimum inhibitory concentration [4]: 4 µg/mL | minimum inhibitory concentration [5]: 0.25 µg/mL | minimum inhibitory concentration [6]: 8 µg/mL | minimum inhibitory concentration [7]: 0.06 µg/mL | minimum inhibitory concentration [8]: 32 µg/mL | minimum inhibitory concentration [9]: 0.063 µg/mL | minimum inhibitory concentration [10]: < 0.25 µg/mL

Bifidobacterium adolescentis IM679 (strain group: human intestinal mucosa or faeces)
minimum inhibitory concentration [1]: 2 µg/mL | minimum inhibitory concentration [2]: 512 µg/mL | minimum inhibitory concentration [3]: 0.12 µg/mL | minimum inhibitory concentration [4]: 256 µg/mL | minimum inhibitory concentration [5]: 16 µg/mL | minimum inhibitory concentration [6]: 256 µg/mL | minimum inhibitory concentration [7]: 0.06 µg/mL | minimum inhibitory concentration [8]: 128 µg/mL | minimum inhibitory concentration [9]: 0.25 µg/mL | minimum inhibitory concentration [10]: 0.5 µg/mL

Streptococcus salivarius IM1353 (strain group: non-starter strains)
minimum inhibitory concentration [1]: 2 µg/mL | minimum inhibitory concentration [2]: < 2 µg/mL | minimum inhibitory concentration [3]: 0.25 µg/mL | minimum inhibitory concentration [4]: < 0.5 µg/mL | minimum inhibitory concentration [5]: 0.5 µg/mL | minimum inhibitory concentration [6]: 1 µg/mL | minimum inhibitory concentration [7]: 0.12 µg/mL | minimum inhibitory concentration [8]: 2 µg/mL | minimum inhibitory concentration [9]: 0.125 µg/mL | minimum inhibitory concentration [10]: < 0.25 µg/mL
